The source of these data is article PMC9911399, “Two distinct binding modes provide the RNA-binding protein RbFox with extraordinary sequence specificity”.

Where a chain is given by its changes, count along the chain named. Some of the results follow.

The labels stand for the following.
T1: RBFOX1 RRM (Homo sapiens, UniProt Q9NWB1 109-208)
T1 sequence: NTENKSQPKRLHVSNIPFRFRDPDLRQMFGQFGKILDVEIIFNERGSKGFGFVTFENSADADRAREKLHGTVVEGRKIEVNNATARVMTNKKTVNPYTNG

B1: AGCUGCG (DNA:RNA)
RNA: GGGAGACCGGAAUUCAGAUUGUCCAGCUGCGUUAAAUCCCGUCGUAGCCACCA
DNA 1: CAATCTGAATTCCGGTCTCCC
DNA 2: TGGTGGCTACGACGGGATT
B2: UCUACAA (DNA:RNA)
RNA: GGGAGACCGGAAUUCAGAUUGUCCUCUACAAUUAAAUCCCGUCGUAGCCACCA
DNA 1: CAATCTGAATTCCGGTCTCCC
DNA 2: TGGTGGCTACGACGGGATT
B3: CCGAGUG (DNA:RNA)
RNA: B1 RNA with A25C, G26C, C27G, U28A, C30U
DNA 1: CAATCTGAATTCCGGTCTCCC
DNA 2: TGGTGGCTACGACGGGATT
B4: CUGUGCU (DNA:RNA)
RNA: B1 RNA with A25C, G26U, C27G, G31U
DNA 1: CAATCTGAATTCCGGTCTCCC
DNA 2: TGGTGGCTACGACGGGATT
B5: AGAUCAA (DNA:RNA)
RNA: B1 RNA with C27A, G29C, C30A, G31A
DNA 1: CAATCTGAATTCCGGTCTCCC
DNA 2: TGGTGGCTACGACGGGATT
B6: AGUGCCG (DNA:RNA)
RNA: B1 RNA with C27U, U28G, G29C
DNA 1: CAATCTGAATTCCGGTCTCCC
DNA 2: TGGTGGCTACGACGGGATT
B7: GCCACUA (DNA:RNA)
RNA: B2 RNA with U25G, U27C, A30U
DNA 1: CAATCTGAATTCCGGTCTCCC
DNA 2: TGGTGGCTACGACGGGATT
B8: GCCGAGC (DNA:RNA)
RNA: B1 RNA with A25G, G26C, U28G, G29A, C30G, G31C
DNA 1: CAATCTGAATTCCGGTCTCCC
DNA 2: TGGTGGCTACGACGGGATT
B9: ACGUCUU (DNA:RNA)
RNA: B1 RNA with G26C, C27G, G29C, C30U, G31U
DNA 1: CAATCTGAATTCCGGTCTCCC
DNA 2: TGGTGGCTACGACGGGATT
B10: GUCCUGG (DNA:RNA)
RNA: B1 RNA with A25G, G26U, U28C, G29U, C30G
DNA 1: CAATCTGAATTCCGGTCTCCC
DNA 2: TGGTGGCTACGACGGGATT
B11: GGAAGUG (DNA:RNA)
RNA: B1 RNA with A25G, C27A, U28A, C30U
DNA 1: CAATCTGAATTCCGGTCTCCC
DNA 2: TGGTGGCTACGACGGGATT
B12: UAGAUUU (DNA:RNA)
RNA: B2 RNA with C26A, U27G, C29U, A30U, A31U
DNA 1: CAATCTGAATTCCGGTCTCCC
DNA 2: TGGTGGCTACGACGGGATT
B13: UUGGAUC (DNA:RNA)
RNA: B2 RNA with C26U, U27G, A28G, C29A, A30U, A31C
DNA 1: CAATCTGAATTCCGGTCTCCC
DNA 2: TGGTGGCTACGACGGGATT
B14: CUUGGGG (DNA:RNA)
RNA: B1 RNA with A25C, G26U, C27U, U28G, C30G
DNA 1: CAATCTGAATTCCGGTCTCCC
DNA 2: TGGTGGCTACGACGGGATT
B15: CCCCAAG (DNA:RNA)
RNA: B1 RNA with A25C, G26C, U28C, G29A, C30A
DNA 1: CAATCTGAATTCCGGTCTCCC
DNA 2: TGGTGGCTACGACGGGATT
B16: UAUCCAG (DNA:RNA)
RNA: B2 RNA with C26A, A28C, A31G
DNA 1: CAATCTGAATTCCGGTCTCCC
DNA 2: TGGTGGCTACGACGGGATT
B17: CCGAGGA (DNA:RNA)
RNA: B2 RNA with U25C, U27G, C29G, A30G
DNA 1: CAATCTGAATTCCGGTCTCCC
DNA 2: TGGTGGCTACGACGGGATT
B18: UUGCAAG (DNA:RNA)
RNA: B2 RNA with C26U, U27G, A28C, C29A, A31G
DNA 1: CAATCTGAATTCCGGTCTCCC
DNA 2: TGGTGGCTACGACGGGATT
B19: AGGACCU (DNA:RNA)
RNA: B1 RNA with C27G, U28A, G29C, G31U
DNA 1: CAATCTGAATTCCGGTCTCCC
DNA 2: TGGTGGCTACGACGGGATT
B20: CAGCCGA (DNA:RNA)
RNA: B2 RNA with U25C, C26A, U27G, A28C, A30G
DNA 1: CAATCTGAATTCCGGTCTCCC
DNA 2: TGGTGGCTACGACGGGATT
B21: UAUCUUC (DNA:RNA)
RNA: B2 RNA with C26A, A28C, C29U, A30U, A31C
DNA 1: CAATCTGAATTCCGGTCTCCC
DNA 2: TGGTGGCTACGACGGGATT
B22: AUUGGUA (DNA:RNA)
RNA: B1 RNA with G26U, C27U, U28G, C30U, G31A
DNA 1: CAATCTGAATTCCGGTCTCCC
DNA 2: TGGTGGCTACGACGGGATT
B23: ACAAUGU (DNA:RNA)
RNA: B2 RNA with U25A, U27A, C29U, A30G, A31U
DNA 1: CAATCTGAATTCCGGTCTCCC
DNA 2: TGGTGGCTACGACGGGATT
B24: CCAUGCG (DNA:RNA)
RNA: B1 RNA with A25C, G26C, C27A
DNA 1: CAATCTGAATTCCGGTCTCCC
DNA 2: TGGTGGCTACGACGGGATT
B25: GCAUUGU (DNA:RNA)
RNA: B1 RNA with A25G, G26C, C27A, G29U, C30G, G31U
DNA 1: CAATCTGAATTCCGGTCTCCC
DNA 2: TGGTGGCTACGACGGGATT
B26: GUUUCCG (DNA:RNA)
RNA: B1 RNA with A25G, G26U, C27U, G29C
DNA 1: CAATCTGAATTCCGGTCTCCC
DNA 2: TGGTGGCTACGACGGGATT
B27: UAUAGGU (DNA:RNA)
RNA: B2 RNA with C26A, C29G, A30G, A31U
DNA 1: CAATCTGAATTCCGGTCTCCC
DNA 2: TGGTGGCTACGACGGGATT
B28: CGUAUUA (DNA:RNA)
RNA: B2 RNA with U25C, C26G, C29U, A30U
DNA 1: CAATCTGAATTCCGGTCTCCC
DNA 2: TGGTGGCTACGACGGGATT
B29: GUACGUU (DNA:RNA)
RNA: B1 RNA with A25G, G26U, C27A, U28C, C30U, G31U
DNA 1: CAATCTGAATTCCGGTCTCCC
DNA 2: TGGTGGCTACGACGGGATT
B30: GUGGAAC (DNA:RNA)
RNA: B2 RNA with U25G, C26U, U27G, A28G, C29A, A31C
DNA 1: CAATCTGAATTCCGGTCTCCC
DNA 2: TGGTGGCTACGACGGGATT
B31: AGUAAGG (DNA:RNA)
RNA: B1 RNA with C27U, U28A, G29A, C30G
DNA 1: CAATCTGAATTCCGGTCTCCC
DNA 2: TGGTGGCTACGACGGGATT

For the test, the target named is T1, RBFOX1 RRM. As to the kind of experiment: EMSA; HiTS-Eq, 1 nM pool, 10 min; buffer printed only for the single-RNA assays: 10 mM Tris pH 7.5, 150 mM NaCl, 3.4 mM EDTA, 0.001% NP-40, 30 C. The conditions noted are these: tags: His6 N-terminal (pET28a); label: 5' 32P. Summed up: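 Relative association constants, normalised to the cognate motif, were derived by comparing read counts of each RNA species with those of the control reaction. The RNA sequenced was the free fraction, separated by 8% native PAGE after a 10 min equilibration in 50 µL of 1 nM 5′-radiolabelled RNA (7 randomized nucleotides) with increasing concentrations of purified wild-type or mutant RbFox RRM.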
(In EMSA bound probe runs differently from free probe, usually more slowly.)
Turning to B1, the binding signal was 0.0222 KA relative to UGCAUGU. For B2 the value was 0.00199 KA relative to UGCAUGU; for B3, 0.0124 KA relative to UGCAUGU; for B4, 0.0184 KA relative to UGCAUGU. For B5 the value was 0.00294 KA relative to UGCAUGU; for B6, 0.0117 KA relative to UGCAUGU; for B7, 0.00609 KA relative to UGCAUGU. For B8 the value was 0.0163 KA relative to UGCAUGU; for B9, 0.00728 KA relative to UGCAUGU.

As to B10, the binding signal is 0.0183 KA relative to UGCAUGU.

Consider B11, for which the binding signal was 0.0211 KA relative to UGCAUGU. For B12 the value was 0.0106 KA relative to UGCAUGU.

Take B13: the binding signal is 0.0188 KA relative to UGCAUGU. Turning to B14, the binding signal was 0.00418 KA relative to UGCAUGU.

As to B15, the binding signal is 0.0108 KA relative to UGCAUGU. For B16 the value was 0.0039 KA relative to UGCAUGU; for B17, 0.00948 KA relative to UGCAUGU.

For B18, the binding signal is 0.0333 KA relative to UGCAUGU. For B19 the value was 0.00932 KA relative to UGCAUGU.

On to B20, for which the binding signal was 0.00829 KA relative to UGCAUGU. For B21 the value was 0.0111 KA relative to UGCAUGU; for B22, 0.0104 KA relative to UGCAUGU. Under B23 stands 0.00427 KA relative to UGCAUGU; under B24, 0.00877 KA relative to UGCAUGU; under B25, 0.0129 KA relative to UGCAUGU.

For the molecule B26, the binding signal is 0.0199 KA relative to UGCAUGU. Under B27 stands 0.00931 KA relative to UGCAUGU; under B28, 0.00205 KA relative to UGCAUGU. Under B29 stands 0.00874 KA relative to UGCAUGU; under B30, 0.0156 KA relative to UGCAUGU. For B31 the value was 0.00699 KA relative to UGCAUGU.
